In PubChem BioAssay AID624417 (National Center for Advancing Translational Sciences (NCATS), 2012):
Screen size: about 410,000 compounds; about 6,400 (1.6%) were called active. The shares of active, inactive and inconclusive entries below differ from those in the screen. Calls come from the whole dose curve; as a rule, active = well fitted inhibition curve with a large enough effect; inconclusive = small, poorly fitted or top-dose-only effect; inactive = no such curve, though single readings can be large or run the other way. Potencies beside an inconclusive call are fits to weak or partial responses and may not hold up.

The compounds below were run against Glucagon-like peptide 1 receptor (Homo sapiens) (UniProt P43220) (assay: qHTS of GLP-1 Receptor Inverse Agonists (Inhibition Mode)). Conditions: HEK293 GLP-1R CRE-luciferase, luminescence, 24 h, GLP-1R form is constitutively active; series mostly up to 38.3 µM.
Procedure, shortened: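 Readout was luciferase luminescence, measured 12 min after detection reagent at room temperature. Beforehand, GLP-1R reporter HEK293 cells had sat 12 h, then received compounds for 24 hr at 37 deg C.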
Note: nearly all actives have a fitted effect of over 55% in size.
Potency is the fitted concentration of half-maximal effect; tags give direction and shape of the fitted curve.

UniProt P43220, sequence (P43220 whole entry, looked up): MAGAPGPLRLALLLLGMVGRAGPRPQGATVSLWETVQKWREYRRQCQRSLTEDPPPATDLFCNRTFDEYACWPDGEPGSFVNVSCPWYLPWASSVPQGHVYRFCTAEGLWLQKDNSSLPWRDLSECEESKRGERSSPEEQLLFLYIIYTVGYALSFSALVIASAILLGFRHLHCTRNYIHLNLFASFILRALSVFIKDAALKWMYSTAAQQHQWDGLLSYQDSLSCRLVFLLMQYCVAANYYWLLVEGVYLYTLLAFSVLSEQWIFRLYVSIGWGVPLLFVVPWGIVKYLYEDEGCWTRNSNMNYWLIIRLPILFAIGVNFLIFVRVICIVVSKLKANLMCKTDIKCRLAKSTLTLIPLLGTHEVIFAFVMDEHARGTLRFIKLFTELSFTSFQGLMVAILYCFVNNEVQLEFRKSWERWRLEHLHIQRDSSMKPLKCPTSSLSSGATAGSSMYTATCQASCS

Potency, inactive:
Cc1ccc(NC(=O)c2c(NC(=O)Cc3ccccc3)sc3c2CCC3)cc1
COc1ccc(Cl)cc1S(=O)(=O)NC(C)C(=O)NCCN1CCOCC1 (stereo unspecified)
O=C(Cc1ccccc1)n1nc(-c2ccco2)nc1SCc1ccccc1
CCC1=NN(C(=O)C(=O)Nc2ccc(OC)cc2)C(O)(C(F)(F)F)C1 (stereo unspecified)
CCSc1nc(-c2ccc(OC)cc2)n(-c2nc3ccccc3s2)n1
Fc1ccccc1-n1ncc2c1ncn1nc(-c3ccccc3Cl)nc21
COCCCNC(=O)c1cc(C(=O)Cc2ccccc2)c[nH]1
O=c1cc(COc2ccccc2[N+](=O)[O-])nc2sccn12
O=C(N/N=C/c1ccncc1)c1ccccc1[N+](=O)[O-]
O=C(CSc1nnc(CNc2ccc(F)cc2)n1Cc1ccccc1)NCc1ccco1

Potency, inconclusive:
CCN1C(=O)c2ccccc2Sc2ccc(NC(=O)Nc3ccccc3OC)cc21 10 µM [inhibitor, partial curve, poor fit]
CCOc1ccc(NC(=O)COc2ccccc2C(=O)NCc2ccccc2)cc1 8.91 µM [inhibitor, partial curve, poor fit]
COc1ccc(C)cc1S(=O)(=O)n1cnc2ccccc21 1.41 µM [inhibitor, full curve]
Cc1ccc(S(=O)(=O)NCC(c2ccc(N(C)C)cc2)N2CCc3ccccc32)cc1C (stereo unspecified) 11.2 µM [inhibitor, single point]
CCOc1ccc(-c2c(C(=O)N/N=C/c3ccc(C)cc3)nnn2-c2nonc2N)cc1 12.6 µM [inhibitor, partial curve, poor fit]
COc1cc(SSc2cc(OC)cc([N+](=O)[O-])c2N)c(N)c([N+](=O)[O-])c1 5.62 µM [inhibitor, full curve, poor fit]
COc1cccc(C(=O)N2CCN(Cc3ccccc3C(F)(F)F)CC2)c1 11.2 µM [inhibitor, partial curve, poor fit]
CC(Oc1ccc(Br)cc1)C(=O)Nc1cc(S(=O)(=O)N2CCOCC2)ccc1N1CCCC1 (stereo unspecified) 28.2 µM [inhibitor, single point]
CC1CCCCN1CCCNC(=O)c1[nH]c2ccccc2c1Sc1ccc(Cl)cc1 (stereo unspecified) 17.8 µM [inhibitor, partial curve, poor fit]
COc1ccccc1CNC(=O)CCC1N=C2c3ccccc3N=C(SCC(N)=O)N2C1=O (stereo unspecified) 14.1 µM [inhibitor, partial curve, poor fit]
CCCC[C@H](CN[C@@H](CNC)[C@H](C)CC)NCCC12CCC(CC1)C2 11.2 µM [inhibitor, single point]
Cc1ccc(CNC(=O)c2ccc(CSCc3ccccc3Cl)o2)cc1 28.2 µM [inhibitor, single point]
CCOC(=O)c1nnn(-c2nonc2N)c1COc1c(C=O)cccc1OC 10 µM [inhibitor, partial curve, poor fit]
COc1ccc(/C=N/Nc2nc3ccccc3o2)cc1O 31.6 µM [inhibitor, single point]
O=C(Nc1ccc(F)cc1)C(CCc1ccccc1)N1CCN(Cc2c(F)cccc2Cl)CC1 (stereo unspecified) 28.2 µM [inhibitor, single point]
CCN(Cc1ccccc1)C(=O)c1ccc(Cl)cc1[N+](=O)[O-] 28.2 µM [inhibitor, single point]
COC(=O)C1=C(C)NC(=O)/C1=C\c1cc(C)n(-c2ccccc2C)c1C 28.2 µM [inhibitor, single point]
Cc1nn(-c2ccc(F)cc2)c(Cl)c1/C=N/NC(=O)c1ccc(O)cc1 28.2 µM [inhibitor, single point]
O=C(c1cc([N+](=O)[O-])ccc1N1CCOCC1)N1CCN(c2ccc([N+](=O)[O-])cc2)CC1 14.1 µM [inhibitor, single point]
O=C(c1ccco1)N(Cc1cccc([N+](=O)[O-])c1)c1ccc(Br)cc1 28.2 µM [inhibitor, single point]
O=c1n(Cc2ccc(F)cc2)nc2n1-c1ccccc1SC2 12.6 µM [inhibitor, single point]
CCOC(=O)C1CCN(C(=O)CN2c3ccc(C(C)C)cc3-c3ccccc3S2(=O)=O)CC1 15.8 µM [inhibitor, single point]
COc1c(C)cc(C(O)c2ncc(-c3ccc(Cl)cc3)[nH]2)cc1C (stereo unspecified) 12.6 µM [inhibitor, single point]
Fc1ccc(Nc2nc(NCc3cccs3)nc3ccsc23)cc1 28.2 µM [inhibitor, single point]
COc1ccc(S(=O)(=O)NC(C)CCc2ccccc2)cc1 (stereo unspecified) 28.2 µM [inhibitor, single point]
O=[N+]([O-])c1ccccc1S(=O)(=O)N1CCN(C2CCN(Cc3ccccc3)CC2)CC1 11.2 µM [inhibitor, single point]
CCOC(=O)C1CCCCN1C(=O)c1cc2ccc(OC)cc2c2cc(OC)c(OC)cc12 (stereo unspecified) 31.6 µM [inhibitor, single point]
CCOC(=O)C1=C[C@@H](C(C)C)N(S(=O)(=O)c2ccc(C)cc2)[C@H]1c1ccc(C(C)C)cc1 11.2 µM [inhibitor, partial curve, poor fit]
Cc1cc(N/N=C/c2ccccc2F)nc(NCc2ccccc2)n1 28.2 µM [inhibitor, single point]
O=C(C(=O)N1CCC(Cc2ccccc2)CC1)c1ccccc1 28.2 µM [inhibitor, single point]
CC1(C(=O)Nc2cnc3ccccc3c2)CCN1Cc1ccccc1Cl (stereo unspecified) 2.82 µM [inhibitor, full curve, poor fit]
